These results are taken from the RNAGym collection of RNA variant scans (doi:10.1093/nar/gkz1192).

The labels stand for the following.
B1: CPEB3 Ribozyme (parent)
chain: UAACAGGGGGCCACAGCAGAAGCGUUCACGUCGCAGCCCCUGUCAGAUUCUGGUGAAUCUGCGAAUUCUGCUGUAUAUCUC

The source gives no read counts; variants with many changes may rest on few reads.

Variants of B1 are the subject of the series. The experiment in a line: self-cleavage, relative activity (ratio to wild type); higher = more cleavage; in vitro, sequencing. The method, boiled down:
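Libraries of CPEB3 self-cleaving ribozyme mutants came from rounds of error-prone PCR and carried barcodes, which DNA sequencing matched to variants. In vitro transcription used T7 RNA polymerase at 37°C for 5 hours, with a further 15 min in DNase I before EDTA stopped the reaction; the ribozymes cleaved during both steps. The RNA was reverse transcribed with template switching and sequenced on Illumina. Relative activity is the cleaved/total read fraction of a variant divided by that of the unmutated ribozyme, averaged over three batches with at least 5 reads.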
Consider A13U A21G U26C, for which the self-cleavage was 0.21.

Take A13G U43C U51A: the self-cleavage was 0.79.

Regarding A13U A18G U41A A56G U60C U67C U69A, the self-cleavage was 0.15.

A13G U43C A64G A77G: the self-cleavage turned out to be 0.26.

As to A13U A35U A45G A64G, the self-cleavage is 0.17.

As to A13U A15G U41C G46A U80C, the self-cleavage was 0.39.

Turning to A13U C14A C17A A21G U78C, the self-cleavage was found to be 0.05.

For A13G U49C U60A, the self-cleavage was determined as 0.11.

Take A13U A20G A21G U43C A47G: the self-cleavage was found to be 0.33.

Regarding A13U A47C U60A, the self-cleavage was determined as 0.08.

Consider A13U A28U A65G, for which the self-cleavage turned out to be 0.15.

As to A13U A75G U80C, the self-cleavage worked out at 1.07.

A13U A18U A28C U43A: the self-cleavage was found to be 0.17.

For A13U A35U C50G, the self-cleavage is 0.54.

For the variant A13G U72A A75G U78C, the self-cleavage amounted to 1.25.

In the case of A13G U43C U67A, the self-cleavage turned out to be 0.09.

Consider A13U A20G U26C U60C, for which the self-cleavage was found to be 0.18.

As to A13U A28G U60C, the self-cleavage came out at 0.37.

Turning to A13G U43C C59A U60A A75U U80C, the self-cleavage is 0.32.

Take A13U A35G U54G: the self-cleavage came out at 1.25.

Turning to A13U C14U C17U U66C, the self-cleavage turned out to be 0.56.

On to A13U A21G G36A U49C, for which the self-cleavage stood at 0.06.

For A13U A28G U48C, the self-cleavage is 0.25.

For A13U A57G U72A, the self-cleavage worked out at 0.27.

With A13U A15U U54A U69C, the self-cleavage was found to be 0.09.

In the case of A13U A64G U72A U74A, the self-cleavage was determined as 0.66.

In the case of A13G U43A U48C U49C U72C, the self-cleavage came to 0.31.

For A13U A28U U41C U49A, the self-cleavage turned out to be 0.66.

On to A13G U48C U60C, for which the self-cleavage was 0.08.

Regarding A13U C38U A45G U49C A77U, the self-cleavage was 0.2.

Consider A13U C14A C17A U78C, for which the self-cleavage amounted to 0.65.

Turning to A13U C29G A65U, the self-cleavage was 0.23.

Turning to A13G U43A U49C U72C, the self-cleavage was determined as 0.24.

As to A13G U54G A64G U67A U72C U74C, the self-cleavage was found to be 0.12.

In the case of A13U A18U A47G A65G, the self-cleavage came out at 0.16.

Turning to A13U A15U A20C A45G A57G A65G C68U, the self-cleavage was 0.

In the case of A13U A15G C34U A45G A56G U74C, the self-cleavage was determined as 0.27.

Turning to A13U A45U A65G U78C U80A, the self-cleavage amounted to 0.11.

Turning to A13U A15G U74A, the self-cleavage came to 1.18.

As to A13U A15G U74C, the self-cleavage was determined as 1.12.

Turning to A13U A21U U25G C32A A57U U72C U80C, the self-cleavage is 0.2.

For A13U C32A U67A U72C, the self-cleavage is 0.11.

In the case of A13G U48A U51A U60C U72G, the self-cleavage was determined as 0.16.

Turning to A13G U48C U54C, the self-cleavage worked out at 0.43.

On to A13U C34U G42U A45G U60C U66C U72C, for which the self-cleavage was 0.

A13U A28G U69C U72C U74C U80C: the self-cleavage was found to be 0.

For A13U A15G C32U, the self-cleavage is 0.4.

A13U C38G U51C U54C U60A A75U U76C: the self-cleavage is 0.05.

For the variant A13U A45G A57G, the self-cleavage turned out to be 0.4.

A13U A15G C62U U66C U69A A75G: the self-cleavage is 0.5.

On to A13G U41G U49C A65G, for which the self-cleavage was determined as 0.15.

Take A13U A20G G30A U31G A57U: the self-cleavage stood at 0.07.

As for A13G U51A U66C, the self-cleavage is 0.25.

As to A13G U54A A65G, the self-cleavage came out at 0.34.

On to A13G U69C U78C, for which the self-cleavage was determined as 0.33.

For A13G U66C U72C, the self-cleavage is 0.36.

As to A13U A64U U69C, the self-cleavage turned out to be 0.19.

On to A13U C44G U72A, for which the self-cleavage came out at 0.16.

As for A13G U43C U54A, the self-cleavage is 0.66.

As to A13U A20G A65G, the self-cleavage turned out to be 0.26.

With A13U A15C G33A C81A, the self-cleavage came to 0.27.

Turning to A13U A18U G33C A35G, the self-cleavage was found to be 0.14.

On to A13U A18C C34A, for which the self-cleavage was 0.38.

For the variant A13U A28G C29U C62A, the self-cleavage is 0.14.

For A13G U48C A57G U72G A77U, the self-cleavage stood at 0.82.

Regarding A13U A21G G30A, the self-cleavage turned out to be 0.12.

With A13U A45G A56U U58C A64G, the self-cleavage amounted to 0.2.

For A13U A21G C29U U67C, the self-cleavage came out at 0.1.

A13U A20G U51A U69A: the self-cleavage turned out to be 0.44.

As to A13U A35U U60C A77U, the self-cleavage turned out to be 0.17.

Consider A13U A15C U54A, for which the self-cleavage stood at 0.98.

With A13U A35G G63A, the self-cleavage came out at 1.23.

As to A13G U66G U67C, the self-cleavage worked out at 0.65.

As to A13U A18G C27U U31C A35C G63A U80A, the self-cleavage came to 0.84.

Take A13U A20U G22U A35G U49C: the self-cleavage was determined as 0.17.

For the variant A13U A21G U54C U67A, the self-cleavage is 0.09.

As to A13U A15U A18G A21G U60C U72C, the self-cleavage is 0.23.

Take A13U A18G G33C U69A: the self-cleavage is 0.07.

As to A13U A18G U25C U26A U41C U60C, the self-cleavage was determined as 0.04.

On to A13U A28G U51C A56G, for which the self-cleavage was 0.37.

Regarding A13U C38U U41A U43C, the self-cleavage was 0.05.

On to A13U A18U A45G A56G, for which the self-cleavage was 0.18.

Take A13U C40A A47U U54C: the self-cleavage amounted to 0.11.
